These results are taken from the antibiotic and cytotoxicity screens of Wong et al. (2023).

The list shows a part of the results.

In the assay the test system is HSkMC (human skeletal muscle cells). As to the kind of experiment: cytotoxicity call (relative viability < 0.9). As to conditions: 10 µM.
For the compound `COc1ccc(NC(=O)Nc2ccc3c(c2)C(=O)N([C@H](C)CO)C[C@@H](C)[C@H](CN(C)S(=O)(=O)c2ccc(F)cc2)OCCCC[C@@H](C)O3)cc1`, the cytotoxicity call was “inactive”. As for `COc1cccc(S(=O)(=O)N(C)C[C@@H]2Oc3ncc(C#Cc4ccc(F)cc4)cc3C(=O)N([C@H](C)CO)C[C@@H]2C)c1`, the cytotoxicity call is “inactive”. Consider `C[C@H](CO)N1C[C@H](C)[C@@H](CN(C)Cc2ccc(C(=O)Nc3ccccc3N)cc2)Oc2c(NC(=O)Nc3ccc4c(c3)OCO4)cccc2C1=O`, for which the cytotoxicity call is “inactive”. In the case of `COc1ccc(NC(=O)Nc2ccc3c(c2)C(=O)N([C@H](C)CO)C[C@@H](C)[C@@H](CN(C)CC2CCCCC2)OCCCC[C@H](C)O3)cc1` it was “inactive”; in that of `CCCCOCCOc1ccc(-c2ccc3c(c2)/C=C(/C(=O)Nc2ccc([S@@](=O)Cc4cncn4CCC)cc2)CCCN3CC(C)C)cc1`, “active”; in that of `Cc1nc(-c2ccccc2)cs1`, “inactive”.

As to `COc1ccccc1CNC(=O)C[C@H]1C[C@H]2c3cc(NC(=O)C4CCOCC4)ccc3O[C@H]2[C@H](CO)O1`, the cytotoxicity call was “inactive”. Next, `Cc1ccc(S(=O)(=O)Nc2ccc3c(c2)C(=O)N([C@@H](C)CO)C[C@H](C)[C@H](CN(C)S(=O)(=O)c2cccs2)O3)cc1`: “inactive”; `Cc1noc(C)c1S(=O)(=O)Nc1ccc2c(c1)CC(=O)N([C@@H](C)CO)C[C@@H](C)[C@@H](CN(C)Cc1ccc(C(=O)O)cc1)O2`: “inactive”.

As to `C[C@H](CO)N1C[C@H](C)[C@H](CN(C)S(=O)(=O)c2cccs2)Oc2ccc(NC(=O)C3CC3)cc2CC1=O`, the cytotoxicity call is “inactive”. Next, `C[C@@H]1CN([C@@H](C)CO)C(=O)c2cc(NC(=O)Nc3ccc(C(F)(F)F)cc3)ccc2O[C@@H](C)CCCCO[C@@H]1CN(C)C(=O)Nc1ccccc1`: “inactive”. As to `COc1cc(OC)c2c(=O)c(O)c(-c3ccc(OC)c(OC)c3)oc2c1`, the cytotoxicity call was “inactive”. Next, `C[C@H](CO)N1C[C@H](C)[C@H](CN(C)S(=O)(=O)c2cn(C)cn2)Oc2c(NC(=O)C3CCCCC3)cccc2C1=O`: “inactive”.

In the case of `COc1ccc(CN(C)C[C@@H]2OCCCC[C@H](C)Oc3ccc(NC(=O)NC4CCCCC4)cc3C(=O)N([C@@H](C)CO)C[C@@H]2C)cc1`, the cytotoxicity call is “inactive”. In the case of `C[C@H](CO)N1C[C@H](C)[C@@H](CN(C)Cc2ccc3c(c2)OCO3)Oc2ncc(C#CCN(C)C)cc2C1=O` it was “inactive”; in that of `Cc1noc(C)c1S(=O)(=O)Nc1cccc2c1O[C@H](CN(C)C(=O)NC(C)C)[C@H](C)CN([C@H](C)CO)C2=O`, “inactive”; in that of `NCCCC[C@H](NC(=O)[C@@H]1CCCN1C(=O)[C@@H]1CSSC[C@H](N)C(=O)N[C@@H](Cc2ccccc2)C(=O)N[C@@H](Cc2ccccc2)C(=O)NC(CCC(N)=O)C(=O)N[C@@H](CC(N)=O)C(=O)N1)C(=O)NCC(N)=O` (some centres undefined), “inactive”.

As for `O=C(C[C@H]1CC[C@H]2[C@@H](COC[C@@H](O)CN2S(=O)(=O)c2ccc(Cl)cc2)O1)NCc1ccncn1`, the cytotoxicity call is “inactive”. In the case of `COCC(=O)N1C[C@@H](C)[C@H](OC)CN(C)C(=O)c2cc(NC(=O)c3ccc(F)cc3)ccc2OC[C@H]1C`, the cytotoxicity call is “inactive”. In the case of `C[C@@H]1CN([C@H](C)CO)C(=O)Cc2cc(NC(=O)Cc3cn(C)c4ccccc34)ccc2O[C@@H]1CN(C)C(=O)Nc1ccc(C(F)(F)F)cc1` it was “inactive”. Next, `C[C@@H]1CCCCO[C@H](CN(C)CC2CCCCC2)[C@H](C)CN([C@H](C)CO)C(=O)c2cc(NC(=O)c3ccccc3)ccc2O1`: “inactive”.

Consider `CN1CCN(C(=O)C[C@H]2C=C[C@H](NC(=O)c3ccc4c(c3)OCO4)[C@@H](CO)O2)CC1`, for which the cytotoxicity call is “inactive”.

As to `C[C@@H]1CN([C@H](C)CO)C(=O)c2cc(C#Cc3ccncc3)cnc2O[C@@H]1CN(C)C(=O)c1ccccc1F`, the cytotoxicity call was “inactive”. Next, `CC(C)CC#Cc1ccc2c(c1)O[C@@H](CN(C)C(=O)Cc1ccccn1)[C@H](C)CN([C@H](C)CO)S2(=O)=O`: “inactive”; `CCN1CCN(C2=C(NS(=O)(=O)c3ccc(Br)s3)C(=O)c3ccccc3C2=O)CC1`: “inactive”; `COc1cccc(CNC(=O)c2cc3c(c(-c4cccc(-c5cccc(C#N)c5)c4)n2)[C@H](CCO)N([S@@](=O)C(C)(C)C)C3)c1`: “inactive”. In the case of `CC=Cc1ccc2n(c1=O)C[C@@H]1[C@@H](CO)[C@H](C(=O)NC3CCC3)N(S(C)(=O)=O)[C@H]21` it was “inactive”; in that of `C=CCc1ccccc1OCC(O)CNC(C)C.Cl` (centres undefined), “inactive”.

In the case of `C=CCNC(=O)[C@@H]1[C@H]2C(=O)O[C@H](c3ccccc3)[C@H](c3ccccc3)N2[C@H](c2ccccc2OCCO)[C@@]12C(=O)Nc1ccc(C#Cc3ccc(OC)cc3)cc12`, the cytotoxicity call is “inactive”.
